# According to PubChem BioAssay AID463173 (ICCB-Longwood Screening Facility, Harvard Medical School, 2010):
# Out of some 52,000 compounds screened, about 1,700 (3.3%) were called active. Cut-off read from the data, not from the text of the source: active = survival mostly below about 52% (no sharp cut-off); inactive = mostly above about 56%. The list shows a part of the results.
# Test system: Wild type
# Assay: S. aureus survival, RN4220 and DeltatarO strains – OD600, teichoic acid synthesis inhibitors, primary screen (AID 463173)
# Settings: S. aureus RN4220 wild type/DeltatarO growth, OD600, 18 h, stronger effect = lower value, screened at 18.75 µg/mL (by protocol)
row,Structure (SMILES),survival
1,CC(=O)c1ccc(NC(=O)CN(C)S(=O)(=O)c2cc3c(cc2Cl)NC(=O)CO3)cc1,inactive: 81%
2,CCCN(CCC)S(=O)(=O)c1ccc(C(=O)Nc2cccc(-c3nc4ccccc4[nH]3)c2)cc1,inactive: 78%
3,CCOc1cc(-c2ccc(OC(=O)c3ccc(C)cc3)c(OC)c2)cc(=O)c2c(C)oc(C)c12,inactive: 109%
4,Nc1c(-c2nc(-c3ccccc3)no2)nnn1CC(=O)Nc1cccc(F)c1,inactive: 56%
5,CCN(CC)CCN(C(=O)c1ccco1)c1nc2cc(C)cc(C)c2s1,inactive: 72%
6,CCOC(=O)c1ccc(Nc2c(-c3cccc(O)c3)nc3nc[nH]n23)cc1,inactive: 64%
7,N#Cc1c(-n2ncnc2-c2ccccc2C(F)(F)F)sc2c1CCCCC2,active: 4%
8,Cc1ccc(NCc2cccn2-c2nnc(N3CCC(C(=O)NCCC(C)C)CC3)s2)cc1,inactive: 102%
9,COc1cc(NC(=O)CNS(=O)(=O)c2cccs2)cc(OC)c1OC,inactive: 72%
10,O=C(Nc1ccc(NC(=O)C2CC2)nc1)c1cccc(F)c1,inactive: 105%
11,O=c1[nH]nc(-c2ccccc2)c2cc3c(=O)[nH]nc(-c4ccccc4)c3cc12,inactive: 111%
12,COc1cccc(C2=NS(=O)(=O)N(C)C(C(=O)Nc3ccccc3SC)=C2)c1,inactive: 97%
13,CCOc1ccc(S(=O)(=O)NCCc2csc3nc(-c4ccc(F)cc4)nn23)cc1,inactive: 99%
14,Cc1ccc(C)c(Cn2c(=O)n(Cc3ccccc3)c(=O)c3c2c2cc(C)ccc2n3C)c1,inactive: 83%
15,CCCC(=O)Nc1cc(C)c(NC(=O)CCC)cn1,inactive: 91%
16,O=C(NCc1cccs1)c1ccc(CSc2nc3ccncc3n2Cc2ccccc2)cc1,inactive: 127%
17,CC1CCC(NC(=O)c2ccc(CS(=O)(=O)c3cccc(C(F)(F)F)c3)o2)CC1 (stereo unspecified),inactive: 95%
18,Cc1ccc(Cl)cc1N1CCN(CCCNC(=O)C2COc3ccccc3C2)CC1 (stereo unspecified),inactive: 77%
19,Cc1ccc(C(=O)Nc2ccc(S(=O)(=O)Nc3onc(C)c3C)cc2)cc1,inactive: 75%
20,CCOC(=O)c1ccc(NC(=O)Cn2c(=O)cc(C(F)(F)F)c3c(C)nn(C)c32)cc1,inactive: 66%
21,COc1ccc(CNC(=O)Cn2c(=O)cc(C)c3c(C)nn(-c4cccc(Cl)c4C)c32)cc1,inactive: 80%
22,CCc1ccc2nc3sc(C(N)=O)c(N)c3cc2c1,inactive: 109%
23,Fc1ccc(CSc2nc(NCc3ccccc3)c3ccccc3n2)cc1,inactive: 63%

row,Structure (SMILES),survival
1,COc1ccc(-c2cc(C(=O)Nc3cccc(O)c3)on2)cc1OC,inactive: 88%
2,COc1cc(NC(=O)NCCN2CCN(c3ccccc3)CC2)cc(OC)c1OC,inactive: 73%
3,COc1ccc(C(=O)NCCn2cc(SC(C)c3ccccc3)c3ccccc32)cc1OC (stereo unspecified),inactive: 73%
4,Cc1ccc(N(C)C(=O)CCS(=O)(=O)c2cc3c(cc2Cl)NC(=O)CO3)cc1,inactive: 88%
5,O=C1CSC(=O)N1CCOc1ccc(F)cc1,inactive: 107%
6,CCOC(=O)Cn1cnc2scc(-c3ccccc3)c2c1=O,inactive: 115%
7,Nc1cnc2cccc3c2c1-c1ccccc1C3=O,inactive: 133%
8,CCN(CC)c1ccc2cc(-c3nc(-c4ccccc4F)no3)c(=O)oc2c1,inactive: 93%
9,Cc1cc(C)c(S(=O)(=O)Nc2ccc(-c3ccc(N4CCCCCC4)nn3)cc2)cc1C,inactive: 65%
10,CCCCn1c(SCC(N)=O)nnc1-c1ccco1,inactive: 106%
11,COC(=O)Cn1cc(C(=O)c2cccs2)c2ccccc21,inactive: 107%
12,O=C(C1COc2ccccc2O1)N1CCCC1 (stereo unspecified),inactive: 105%
13,Cc1cccc(NC(=O)CSc2nc3c(sc4ccccc43)c(=O)n2CCCC(=O)NC2CCCC2)c1,inactive: 90%
14,Cc1cccc(C(=O)Nc2ccc(S(=O)(=O)N(Cc3ccccc3)c3ccccc3)cc2)c1,inactive: 83%
15,CCC(C)NC(=O)CSc1nc2cc3c(cc2c(=O)n1Cc1ccc(C(=O)NCCc2ccc(OC)c(OC)c2)cc1)OCO3 (stereo unspecified),inactive: 100%
16,Nc1ncnc2c1ncn2C1OC(C(=O)O)C(O)C1O (stereo unspecified),inactive: 108%
17,CCc1ccc(NC(=O)Nc2nnc(N(C)C3CCCCC3)s2)cc1,inactive: 112%
18,O=C(Nc1cccc(C(F)(F)F)c1)c1ccc2snnc2c1,inactive: 118%
19,CC(=O)c1ccc(NC(=O)Cn2c(=O)nc(-c3ccccc3)c3cc(Cl)ccc32)cc1,inactive: 115%
20,COc1cccc(NC(=O)c2oc3ccccc3c2NC(=O)c2cc3ccccc3o2)c1,inactive: 72%
21,Cc1cccc(N2CCN(C(=O)C3CCN(c4ncnc5c4nc4n5CCCCC4)CC3)CC2)c1C,inactive: 81%
22,CCOC(=O)C1CCCN(c2ncnc3c2nnn3C)C1 (stereo unspecified),inactive: 121%
23,O=S(=O)(Nc1ccc(F)cc1F)c1ccc(-n2cccn2)cc1,inactive: 67%

row,Structure (SMILES),survival
1,COCCn1c(SCC(=O)c2c[nH]c3ccccc23)nc2cc(C(=O)NC(C)C)ccc2c1=O,active: 14%
2,Cc1nc2ccn(Cc3cccnc3)c(=O)c2cc1C(=O)Nc1ccc(F)cc1F,inactive: 81%
3,COCCCNC(=O)c1ccc(C)c(-n2c(C)nc3cccnc32)c1,inactive: 68%
4,CCOc1ccc(CCNC(=O)c2cc3c(s2)-c2c(C)cccc2OC3)cc1,inactive: 90%
5,CN1/C(=C/C(=O)C2CCC2)Sc2ccccc21,inactive: 107%
6,O=C(CN1C(=O)CCc2cc(S(=O)(=O)N3CCOCC3)ccc21)NCc1ccc(Cl)cc1,inactive: 45%
7,CCOc1ccc(-c2nnc(SCC(=O)c3ccc(Br)cc3)n2-c2ccccc2)cc1,inactive: 92%
8,COc1ccc(NC(=O)Cn2nnc3sc4c(c3c2=O)CCCC4)cc1,inactive: 69%
9,Cc1ccc(OCC(=O)Nc2ccc3nc(SCCOc4ccccc4)sc3c2)cc1,inactive: 99%
10,CCOC(=O)Cn1c(=O)oc2cc(S(=O)(=O)N3CCC(C(=O)OCC)CC3)ccc21,inactive: 81%
11,Cc1ccc(NC(=O)CN2C(=O)COc3ccc(S(=O)(=O)Nc4ccccc4)cc32)c(C)c1,inactive: 53%
12,COc1ccc(CNC(=O)c2ccc3nc(C(C)C)oc3c2)cc1OC,inactive: 54%
13,O=C(Nc1cccc2ccccc12)OC1C=CS(=O)(=O)C1 (stereo unspecified),inactive: 107%
14,Cc1cc(C)c(NC(=O)CSc2nc3ccncc3[nH]2)c(C)c1,inactive: 127%
15,CC(C)NC(=O)C1CCN(c2ccc(S(=O)(=O)N3CCOCC3)cc2Cl)CC1,inactive: 103%
16,Cc1ccc(C2=NC(c3ccccc3)=Nc3ccc(Cl)cc3N2)cc1,inactive: 82%
17,COCCCNC(=O)CSc1nc(-c2ccc(OC)c(OC)c2)[nH]c1-c1ccc(F)cc1,inactive: 85%
18,Cc1cc(C)c2c(=O)cc(C(=O)NCc3ccc(S(N)(=O)=O)cc3)oc2c1,inactive: 121%
19,CCc1ccc(NC(=O)CCc2nnc3n(C)c(=O)c4sccc4n23)cc1,inactive: 66%
20,COC(=O)c1cc2oc3ccccc3c2n1Cc1c(C)cc(C)cc1C,inactive: 115%
21,Cc1cccc(NC(=O)C2CCCN(S(=O)(=O)c3ccc(Br)s3)C2)c1 (stereo unspecified),inactive: 68%
22,Cc1cc(C)cc(NC(=O)Cn2c(=O)n(Cc3ccco3)c(=O)c3oc4ccccc4c32)c1,inactive: 106%
23,COc1cc2ccccc2cc1C(=O)Nc1cccc(-c2nc3cc(C)ccc3o2)c1C,inactive: 75%

row,Structure (SMILES),survival
1,Cc1nn2c(=O)cc(COC(=O)COc3ccc(F)cc3)nc2s1,inactive: 74%
2,Cc1nc2cccnc2n1-c1cccc(C(=O)NCCc2ccc(S(N)(=O)=O)cc2)c1,inactive: 80%
3,COc1ccc(NC(=O)CS(=O)CC(=O)Nc2cc(OC)ccc2OC)cc1 (stereo unspecified),inactive: 107%
4,CCN(CCCNC(=O)CSc1cc(=O)n(CC)c2ccccc12)c1ccccc1,inactive: 64%
5,CCc1ccc(CNC(=O)Cn2ccc3cc(S(=O)(=O)N4CCCCCC4)ccc32)cc1,inactive: 134%
6,O=C(NC1CCCC1)c1ccc2c(=O)n(Cc3ccccc3)c(SCc3ccc([N+](=O)[O-])cc3)nc2c1,inactive: 73%
7,COc1ccc(OC)c2sc(N(Cc3cccnc3)C(C)=O)nc12,inactive: 100%
8,CCOC(=O)N1CCN(Cc2nc3cc(NC(=O)CC)ccc3n2C(C)C)CC1,inactive: 97%
9,CCc1ccc(-n2nc(CO)c(C(=O)NC(C)c3ccc(Cl)cc3)n2)cc1 (stereo unspecified),inactive: 97%
10,COc1cccc(CNC(=O)CN2C(=O)CCc3cc(S(=O)(=O)N4CCOCC4)ccc32)c1,inactive: 89%
11,CCOC(=O)/C(C#N)=C/C1=C(N)CC(C)(C)OC1,inactive: 104%
12,CN1CCN(C(=O)C2CCN(S(C)(=O)=O)CC2)CC1,inactive: 109%
13,Cc1ccc(Sc2ccc(N3CCCC(C(=O)Nc4ccc(Br)cc4)C3)nn2)cc1 (stereo unspecified),inactive: 57%
14,CSc1nnc(COc2cccc(C)c2)n1C,inactive: 95%
15,O=C(NCCc1ccc(Cl)cc1)c1cc(-c2ccccc2)n[nH]1,inactive: 80%
16,COc1ccc(SCc2cc(=O)c3ccc(C)c(C)c3[nH]2)cc1,inactive: 73%
17,Cc1c(C)n(Cc2ccccc2)c2ccc(C(=O)N3CCN(c4ccccc4F)CC3)cc12,inactive: 71%
18,Cc1nc2ccn(Cc3cccnc3)c(=O)c2cc1C(=O)N1CCN(c2ccccc2F)CC1,inactive: 73%
19,Cc1ccc(C)c(N2CCN(c3nc4ccccc4c(=O)n3-c3ccc(Cl)cc3)CC2)c1,inactive: 78%
20,COc1ccc2c(c1)Cc1sc(NC(=O)c3ccccc3C)nc1-2,inactive: 133%
21,CC(C)(C)C(=O)Nc1cccc(C(=O)O)c1,inactive: 106%
22,CCOc1ccc(-c2nnc(SCC(=O)NC3CCCCC3)nc2-c2ccc(OCC)cc2)cc1,inactive: 94%
